Measured values from patent US20230083670A1 (IMMUNEONCO BIOPHARMACEUTICALS SHANGHAI, published 2023).

Molecular target: T1, CD47 on Jurkat cells (UniProt Q08722)
T1 construct: whole, on cells; also called CD47-expressing Raji cells
Assay: flow cytometry competition; blocks FITC-SIRPα-Fc (80 nM) on PD-L1- CD47+ Raji cells
Method: The mixtures were added to a 96-well plate containing PD-L1⁻ or PD-L1⁺ CD47-expressing Raji cells, and the plate was incubated at 4° C. for 45 minutes.

IC50: 128 nM
B1: IMM2520 (bispecific antibody, human IgG1, kappa)
heavy: not shown
light: DIQMTQSPSSLSASVGDRVTITCRASQDIINYLNWYQQKPGKAPKLLIYYTSRLHSGVPSRFSGSGSGTDFTFTISSLQPEDIATYYCQQGDTLPWTFGQGTKVEIKRTVAAPSVFIFPPSDEQLKSGTASVVCLLNNFYPREAKVQWKVDNALQSGNSQESVTEQDSKDSTYSLSSTLTLSKADYEKHKVYACEVTHQGLSSPVTKSFNRGEC
notes: SIRPαD1 mutant linked through the linker to the N-terminus of each heavy chain of IMM2515; also called recombinant fusion protein IMM2520; PD-L1×CD47 bispecific
